Assay results taken from PubChem BioAssay AID360 (National Center for Advancing Translational Sciences (NCATS), 2006).
The whole screen tested about 48,000 compounds, of which about 550 (1.1%) were called active. Not shown: some 4% with an inconclusive outcome. Cut-off read from the data, not from the text of the source: active = potency below about 15 µM; inconclusive = mostly about 16 µM to 33 µM; inactive = weaker than that. The list shows a part of the results.

Molecular target: Lysosomal acid glucosylceramidase (Homo sapiens) (UniProt P04062)
Sequence of UniProt P04062 (P04062 whole entry, looked up): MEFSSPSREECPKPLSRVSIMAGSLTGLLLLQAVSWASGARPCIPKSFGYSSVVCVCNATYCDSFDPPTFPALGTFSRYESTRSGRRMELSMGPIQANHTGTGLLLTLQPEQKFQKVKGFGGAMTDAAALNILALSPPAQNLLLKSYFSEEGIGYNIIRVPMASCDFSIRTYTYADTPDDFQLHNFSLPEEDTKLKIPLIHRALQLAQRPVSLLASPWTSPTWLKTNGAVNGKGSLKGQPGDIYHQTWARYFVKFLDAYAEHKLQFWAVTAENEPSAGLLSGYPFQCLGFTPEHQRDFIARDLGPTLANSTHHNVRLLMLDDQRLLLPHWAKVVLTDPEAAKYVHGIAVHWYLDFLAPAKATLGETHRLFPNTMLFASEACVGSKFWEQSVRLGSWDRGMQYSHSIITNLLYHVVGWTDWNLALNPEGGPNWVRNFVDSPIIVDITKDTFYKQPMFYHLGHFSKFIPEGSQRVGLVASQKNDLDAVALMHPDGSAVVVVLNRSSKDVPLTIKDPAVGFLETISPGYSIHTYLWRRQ
Experiment: Glucocerebrosidase;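 note: the screen sought inhibitors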
Settings: purified enzyme, resorufin glucoside fluorescence (screen aimed at inhibitors), 20 min; series mostly up to 77 µM
Method in brief: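 Wild-type enzyme at 0.2 nM final in 50mM citric acid/KH2PO4, 10mM sodium taurocholate, 0.01% tween-20, pH 5.9, with resorufin beta-D-glucopyranoside at 30 uM final. Compounds titrated, 20 min at RT, red fluorescence read; AC50 from titration.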
Potency is the fitted concentration of half-maximal effect.

Potency, inactive:
O=C(NCc1ccccc1)NC1(C(=O)N2CCCC2)CCCCC1 > 76.9 µM
CC(C)(C)c1nc(SCC(=O)NCc2ccco2)c2ccccc2n1 > 76.9 µM
CCN=C1SC(CC(=O)NC(N)=O)C(=O)N1CC (centres undefined) > 76.9 µM
O=C(NCCSCc1c(F)cccc1Cl)c1ccco1 > 76.9 µM
CC(C)Cn1c(N)c(C(=O)CSc2nnnn2-c2ccc(Cl)cc2)c(=O)n(C)c1=O > 76.9 µM
CCOC(=O)N1CCC(NC(=O)CC(NS(=O)(=O)c2ccc(Cl)cc2)c2ccco2)CC1 (centres undefined) > 76.9 µM
Cc1c(C)c2c(C)[nH]nc2oc1=O > 76.9 µM
Cc1ccc(NC(=O)N2CCC(C(=O)NCc3ccccc3)CC2)cc1 > 76.9 µM
CCC1S/C(=C(\C#N)C(=O)NCc2ccco2)N(c2ccc(Br)cc2)C1=O (centres undefined) > 76.9 µM
O=C(NCc1ccco1)c1nc2nc(-c3cccs3)cc(C(F)(F)F)n2n1 > 76.9 µM
N#CC(C(=O)c1ccc(S(=O)(=O)N2CCCCCC2)cc1)c1nc2ccccc2[nH]1 (centres undefined) > 76.9 µM
Cc1cccc2cc(CN(CC3CCCO3)S(=O)(=O)c3ccccc3)c3nnnn3c12 (centres undefined) > 76.9 µM
COC(=O)C1=C(NC(=O)c2ccc(C)c(C)c2)CCS1 > 76.9 µM
CC(=O)NCC(=O)NC1(C(=O)NC2CCCC2)CCCCC1 > 76.9 µM
CCCCc1nc2ccccc2c(=O)n1NC(=O)c1c(O)c2cccc3c2n(c1=O)CC3 > 76.9 µM
CCOC(=O)c1[nH]cnc1C(=O)NC1CCCCC1 > 76.9 µM
COCCN1CSC(=S)N(Cc2ccco2)C1 > 76.9 µM
Cc1cc(C)n(-c2nc(C)nc3c2cnn3-c2ccccc2)n1 > 76.9 µM
COc1ccc(Cn2c(C)nc3c(c2=O)c2nc4ccccc4nc2n3Cc2ccco2)cc1 > 76.9 µM
O=S(=O)(c1cccc2nsnc12)N1CCOCC1 > 76.9 µM
CCOC(=O)C1CCN(C(=O)c2ccco2)CC1 > 76.9 µM
O=C(c1ccco1)N1CCCC(c2ccccc2)C1 (centres undefined) > 76.9 µM
O=c1[nH]c2cccnc2n1Cc1ccco1 > 76.9 µM
CC(=C/C(=O)O)/C=C/c1cccs1 > 76.9 µM
O=C(c1cc(S(=O)(=O)N2CCOCC2)ccc1F)N1CCCc2ccccc21 > 76.9 µM
COC(=O)c1ccc(NC(=O)CN(C)S(=O)(=O)c2ccc(OC)c(C)c2)cc1 > 76.9 µM
COc1ccc(N2CCN(CC(O)c3c[nH]c4ccc(OC)cc34)CC2C)cc1 (centres undefined) > 76.9 µM
O=C(O)Cn1c(-c2ccccc2)nc2ccccc21 > 76.9 µM
CC(=O)N1CCc2cc(S(=O)(=O)NCCC(=O)NCCc3ccc(C)cc3)ccc21 > 76.9 µM
C=CCn1c(SCC(=O)NCc2ccccc2)nnc1-c1ccccc1O > 76.9 µM
Cc1cc(C)n2nc(SCc3cc(=O)n4ccccc4n3)nc2n1 > 76.9 µM
COc1cccc(C=Nc2ccc3c(c2)OCCO3)c1O > 76.9 µM
COCCCNC(CC(=O)Nc1ccccc1C(=O)OC)C(=O)O (centres undefined) > 76.9 µM
CN1C(=O)c2ccccc2C(C(=O)NCCCN2CCCC2=O)C1c1c[nH]c2ccccc12 (centres undefined) > 76.9 µM
O=C(CSc1ccccc1)NCCCN1CCOCC1 > 76.9 µM
CCOC(=O)Nc1cc(C(=O)OCC)c(C)nc1C > 76.9 µM
Cc1cccc2cc(C#N)c(SCCN3CCCCC3)nc12
CCOc1cccc(C(=O)Nc2cccc(-c3nc4ncccc4o3)c2C)c1 > 76.9 µM
CCOC(=O)c1sc(-c2ccccc2)cc1N > 76.9 µM
O=C(Oc1ccc(-c2nc(-c3ccccn3)no2)cc1)c1ccccc1 > 76.9 µM
CC(C)OC(=O)CSc1ncnc2c1cnn2Cc1ccccc1
O=C(NCCc1ccccc1)C1CC(=O)N(C2CCCCCC2)C1 (centres undefined) > 76.9 µM
COc1ccc(S(=O)(=O)N2CCN(S(=O)(=O)c3ccc(C(F)(F)F)cc3)CC2)cc1C > 76.9 µM
Clc1ccc(OCc2nc(-c3ccccn3)n[nH]2)cc1 > 76.9 µM
O=S(=O)(/N=C/N1CCOCC1)c1ccc(Cl)cc1 > 76.9 µM
O=C(C1CCCO1)N1CCN(S(=O)(=O)c2ccccc2)CC1 (centres undefined) > 76.9 µM
CCOC(=O)c1snc(-c2ccc(F)cc2)c1N > 76.9 µM
COc1ccc(Nc2nc(CC(C)=O)ns2)cc1OC > 76.9 µM
O=S1(=O)CCN2C(=N1)SC1=C2CCN(Cc2ccccc2)C1 > 76.9 µM
CCOc1ccc(-n2c(C)nc3c(cnn3-c3ccc(Cl)cc3)c2=O)cc1 > 76.9 µM
Cc1ccc(-c2nn3c(C)nnc3s2)cc1N > 76.9 µM
O=C(CSc1nnnn1Cc1ccccc1)Nc1ccc2c(c1)OCO2 > 76.9 µM
COc1ccc(C2N=C(Nc3ccc(C)cc3)Nc3nc(C)cc(=O)n32)cc1 (centres undefined) > 76.9 µM
COc1ccc(C2CC(=O)c3c([nH]c(C(=O)OC(C)C)c3C)C2)cc1OC (centres undefined) > 76.9 µM
O=C(C1CCN(S(=O)(=O)N2CCC3(CC2)OCCO3)CC1)N1CCC(Cc2ccccc2)CC1 > 76.9 µM
CCCc1cc(=O)[nH]c(/N=C(/NC(=O)c2ccccc2)Nc2ccc3c(c2)OCCO3)n1 > 76.9 µM
Cc1ccc(P(=O)(CC(=O)O)c2ccc(C)cc2)cc1 > 76.9 µM
O=C(O)C1C2C=CC(C2)C1C(=O)NCCc1ccccc1 (centres undefined) > 76.9 µM
CCOC(=O)C1CCN(C(=O)COc2ccc(S(=O)(=O)NC(C)C)cc2)CC1 > 76.9 µM
